{"sequences": {"note": "Sequences of proteins named here, by UniProt entry; tags and fusion partners are left off. Residues count along the entry.", "UniProt P97772, residues 21-1199": "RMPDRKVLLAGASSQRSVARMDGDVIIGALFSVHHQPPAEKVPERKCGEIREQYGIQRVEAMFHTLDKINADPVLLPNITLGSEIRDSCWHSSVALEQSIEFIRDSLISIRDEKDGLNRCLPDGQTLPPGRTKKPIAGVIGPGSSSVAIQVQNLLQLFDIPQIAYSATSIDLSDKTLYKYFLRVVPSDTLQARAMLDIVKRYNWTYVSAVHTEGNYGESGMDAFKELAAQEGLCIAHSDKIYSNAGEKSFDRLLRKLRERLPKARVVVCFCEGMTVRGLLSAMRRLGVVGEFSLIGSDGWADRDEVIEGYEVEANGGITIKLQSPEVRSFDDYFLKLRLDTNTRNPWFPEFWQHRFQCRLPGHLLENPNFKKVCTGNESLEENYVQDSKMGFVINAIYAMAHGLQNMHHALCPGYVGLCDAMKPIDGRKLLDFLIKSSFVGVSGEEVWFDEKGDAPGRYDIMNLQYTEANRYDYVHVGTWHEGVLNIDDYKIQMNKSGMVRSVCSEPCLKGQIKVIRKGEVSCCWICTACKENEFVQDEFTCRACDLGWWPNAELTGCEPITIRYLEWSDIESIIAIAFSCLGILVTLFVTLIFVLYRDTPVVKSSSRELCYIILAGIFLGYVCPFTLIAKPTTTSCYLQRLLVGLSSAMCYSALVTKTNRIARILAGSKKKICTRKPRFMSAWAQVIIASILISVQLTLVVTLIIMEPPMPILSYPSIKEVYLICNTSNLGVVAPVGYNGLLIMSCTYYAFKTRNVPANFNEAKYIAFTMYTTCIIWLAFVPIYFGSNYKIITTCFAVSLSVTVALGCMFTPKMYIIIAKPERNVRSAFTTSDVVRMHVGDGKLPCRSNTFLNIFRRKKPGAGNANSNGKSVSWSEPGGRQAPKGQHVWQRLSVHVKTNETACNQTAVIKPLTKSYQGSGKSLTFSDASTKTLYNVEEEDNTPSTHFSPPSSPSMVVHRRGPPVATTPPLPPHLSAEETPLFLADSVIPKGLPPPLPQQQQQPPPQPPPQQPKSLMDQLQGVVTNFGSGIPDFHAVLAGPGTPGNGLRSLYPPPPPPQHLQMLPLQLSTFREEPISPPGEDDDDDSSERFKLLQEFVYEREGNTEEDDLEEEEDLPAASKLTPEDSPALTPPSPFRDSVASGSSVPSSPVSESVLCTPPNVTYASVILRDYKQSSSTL", "UniProt Q14BI2, residues 19-872": "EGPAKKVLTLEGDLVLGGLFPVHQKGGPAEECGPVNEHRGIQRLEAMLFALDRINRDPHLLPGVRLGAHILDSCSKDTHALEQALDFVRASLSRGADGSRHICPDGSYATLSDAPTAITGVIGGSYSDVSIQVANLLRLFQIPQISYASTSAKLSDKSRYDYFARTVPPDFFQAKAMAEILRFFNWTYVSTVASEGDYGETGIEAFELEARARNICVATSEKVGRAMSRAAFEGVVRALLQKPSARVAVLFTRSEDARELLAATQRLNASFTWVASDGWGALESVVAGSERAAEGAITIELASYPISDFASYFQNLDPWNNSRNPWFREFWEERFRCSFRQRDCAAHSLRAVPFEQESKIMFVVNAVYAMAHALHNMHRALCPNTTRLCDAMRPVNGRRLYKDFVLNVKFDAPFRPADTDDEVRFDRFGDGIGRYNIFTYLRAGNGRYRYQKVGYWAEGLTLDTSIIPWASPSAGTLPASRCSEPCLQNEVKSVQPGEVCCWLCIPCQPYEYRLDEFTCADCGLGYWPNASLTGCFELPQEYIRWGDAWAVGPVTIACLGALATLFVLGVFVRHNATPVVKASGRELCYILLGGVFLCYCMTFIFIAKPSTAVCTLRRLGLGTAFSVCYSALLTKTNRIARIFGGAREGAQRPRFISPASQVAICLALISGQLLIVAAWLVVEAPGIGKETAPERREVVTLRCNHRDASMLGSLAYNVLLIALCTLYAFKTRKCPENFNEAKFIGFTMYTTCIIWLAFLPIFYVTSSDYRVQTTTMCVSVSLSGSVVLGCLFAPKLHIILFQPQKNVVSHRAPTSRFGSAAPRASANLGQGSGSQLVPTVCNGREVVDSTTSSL", "UniProt Q9QYS2, residues 23-879": "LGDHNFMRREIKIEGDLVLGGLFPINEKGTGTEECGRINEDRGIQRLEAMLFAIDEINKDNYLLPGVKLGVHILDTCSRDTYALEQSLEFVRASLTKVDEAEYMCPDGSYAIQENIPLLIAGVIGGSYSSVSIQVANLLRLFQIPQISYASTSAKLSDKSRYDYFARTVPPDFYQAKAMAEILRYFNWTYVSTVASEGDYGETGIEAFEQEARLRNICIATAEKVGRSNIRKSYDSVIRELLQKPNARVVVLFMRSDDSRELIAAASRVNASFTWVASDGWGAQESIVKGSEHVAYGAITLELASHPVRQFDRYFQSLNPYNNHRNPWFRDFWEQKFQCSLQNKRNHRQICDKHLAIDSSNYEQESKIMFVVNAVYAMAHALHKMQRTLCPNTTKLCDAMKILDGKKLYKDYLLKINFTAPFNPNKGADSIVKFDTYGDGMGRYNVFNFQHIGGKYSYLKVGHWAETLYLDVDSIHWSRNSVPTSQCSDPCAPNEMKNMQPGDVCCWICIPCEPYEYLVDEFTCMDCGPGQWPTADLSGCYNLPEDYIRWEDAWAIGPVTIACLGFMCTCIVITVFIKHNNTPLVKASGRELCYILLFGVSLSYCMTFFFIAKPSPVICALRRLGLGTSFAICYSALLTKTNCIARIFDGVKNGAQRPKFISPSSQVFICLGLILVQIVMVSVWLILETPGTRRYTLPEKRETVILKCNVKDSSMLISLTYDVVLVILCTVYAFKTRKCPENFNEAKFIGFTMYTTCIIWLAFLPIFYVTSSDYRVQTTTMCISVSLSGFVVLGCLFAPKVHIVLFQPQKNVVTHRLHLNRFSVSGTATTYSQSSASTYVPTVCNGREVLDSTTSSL", "UniProt Q3UVX5, residues 19-1203": "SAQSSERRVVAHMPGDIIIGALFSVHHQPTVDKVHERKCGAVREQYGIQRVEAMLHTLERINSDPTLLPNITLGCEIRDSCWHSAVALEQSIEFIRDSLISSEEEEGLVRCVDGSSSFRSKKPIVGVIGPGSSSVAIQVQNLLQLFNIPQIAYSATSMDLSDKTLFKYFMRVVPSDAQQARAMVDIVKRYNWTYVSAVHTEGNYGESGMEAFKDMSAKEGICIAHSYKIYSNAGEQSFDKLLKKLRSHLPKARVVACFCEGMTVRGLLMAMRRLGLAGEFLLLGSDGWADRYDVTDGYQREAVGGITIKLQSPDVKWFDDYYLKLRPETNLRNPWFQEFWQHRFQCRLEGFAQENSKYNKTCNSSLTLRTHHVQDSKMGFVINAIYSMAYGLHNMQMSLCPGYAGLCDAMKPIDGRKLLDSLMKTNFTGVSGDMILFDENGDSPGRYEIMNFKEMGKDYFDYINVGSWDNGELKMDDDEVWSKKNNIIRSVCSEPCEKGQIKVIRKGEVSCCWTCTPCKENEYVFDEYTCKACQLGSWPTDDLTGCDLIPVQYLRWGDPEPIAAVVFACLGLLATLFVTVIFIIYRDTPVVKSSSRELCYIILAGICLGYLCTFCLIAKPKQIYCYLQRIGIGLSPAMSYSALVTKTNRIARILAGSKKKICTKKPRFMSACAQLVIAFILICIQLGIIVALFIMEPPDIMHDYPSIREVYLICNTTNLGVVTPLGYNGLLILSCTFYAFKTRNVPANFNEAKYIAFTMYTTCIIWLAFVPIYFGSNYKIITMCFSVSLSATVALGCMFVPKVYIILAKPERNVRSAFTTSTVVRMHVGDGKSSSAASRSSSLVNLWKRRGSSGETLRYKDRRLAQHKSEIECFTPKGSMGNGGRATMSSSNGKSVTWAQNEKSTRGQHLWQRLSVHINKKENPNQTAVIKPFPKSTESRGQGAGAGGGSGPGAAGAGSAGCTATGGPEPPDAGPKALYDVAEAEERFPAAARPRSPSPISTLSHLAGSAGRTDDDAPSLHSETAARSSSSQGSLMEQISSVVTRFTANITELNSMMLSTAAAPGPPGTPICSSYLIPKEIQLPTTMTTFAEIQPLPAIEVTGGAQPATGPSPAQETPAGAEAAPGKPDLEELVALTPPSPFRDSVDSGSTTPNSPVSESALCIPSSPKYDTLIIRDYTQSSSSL", "UniProt Q5NCH9, residues 24-871": "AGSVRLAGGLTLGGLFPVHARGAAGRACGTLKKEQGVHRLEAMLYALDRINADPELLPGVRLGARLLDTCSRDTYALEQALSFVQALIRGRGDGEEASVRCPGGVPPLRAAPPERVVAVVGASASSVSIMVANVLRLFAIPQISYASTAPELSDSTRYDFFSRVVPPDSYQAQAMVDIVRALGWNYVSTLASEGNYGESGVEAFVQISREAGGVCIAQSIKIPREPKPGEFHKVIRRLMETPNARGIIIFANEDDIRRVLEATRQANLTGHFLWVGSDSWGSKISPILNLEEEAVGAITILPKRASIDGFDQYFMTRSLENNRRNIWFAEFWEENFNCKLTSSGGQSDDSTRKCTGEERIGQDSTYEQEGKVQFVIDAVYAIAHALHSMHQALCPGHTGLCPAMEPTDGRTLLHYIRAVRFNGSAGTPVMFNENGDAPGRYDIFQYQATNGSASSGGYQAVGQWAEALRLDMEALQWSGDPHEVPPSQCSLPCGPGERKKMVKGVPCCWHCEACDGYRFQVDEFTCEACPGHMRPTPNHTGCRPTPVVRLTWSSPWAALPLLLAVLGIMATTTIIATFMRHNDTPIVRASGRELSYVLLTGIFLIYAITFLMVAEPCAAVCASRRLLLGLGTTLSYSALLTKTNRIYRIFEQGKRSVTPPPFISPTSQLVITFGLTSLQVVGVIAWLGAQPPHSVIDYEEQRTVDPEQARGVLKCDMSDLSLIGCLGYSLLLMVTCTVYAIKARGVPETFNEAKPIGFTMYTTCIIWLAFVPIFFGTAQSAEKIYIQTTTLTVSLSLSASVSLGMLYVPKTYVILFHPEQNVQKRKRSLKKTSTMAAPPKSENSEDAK"}, "source": "paper PMC5720820", "note": "No constants are given. Whether binding was seen depends on the method and setting. Binding seen in cells or lysates may run through a third protein. Some entries that bind do so weakly or less than the wild type."}
{"target": "metabotropic glutamate receptor 1 (mGluR1) (mouse (endogenous in brain)) (UniProt P97772)", "experiment": "co-IP"}
{"substance": "cellular prion protein PrP^C (wild type, endogenous) (from UniProt P04925 23-230)", "binding": "binds"}
{"target": "cellular prion protein PrP^C (wild type, endogenous) (mouse (endogenous in C57BL/6J brain)) (UniProt P04925)", "experiment": "co-IP"}
{"substance": "metabotropic glutamate receptor 1 (mGluR1) (from UniProt P97772 21-1199)", "binding": "binds"}
{"substance": "metabotropic glutamate receptor 2 (of mGluR2/3) (from UniProt Q14BI2 19-872)", "binding": "no binding"}
{"substance": "metabotropic glutamate receptor 3 (of mGluR2/3) (from UniProt Q9QYS2 23-879)", "binding": "no binding"}
{"substance": "metabotropic glutamate receptor 5 (mGluR5) (from UniProt Q3UVX5 19-1203)", "binding": "binds"}
{"substance": "metabotropic glutamate receptor 6 (mGluR6) (from UniProt Q5NCH9 24-871)", "binding": "no binding"}
